Results on 99 molecules are retold here after article PMC6919601, “Identification of Plasmodium dipeptidyl aminopeptidase allosteric inhibitors by high throughput screening” (PLoS ONE, 2019).

Where “and” joins values, the source holds several entries; their conditions need not be identical. Identical values can stand only once. Out of some 110,000 compounds screened, about 230 (0.21%) showed an effect of 50% or more. The list shows a part of the results.
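Further: 30 min substrate incubation versus DMSO and 10 µM JCP410 controls.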

For the experiment, the target named is DPAP1 (Plasmodium falciparum, UniProt Q8IIJ9). Kind of experiment: primary screen, percent inhibition; read by cleavage of a fluorogenic dipeptide substrate; higher = more effect of the substance. Also noted: species or system P. falciparum D10 trophozoite lysates; single well.
Chain of DPAP1 (Q8IIJ9 whole entry, looked up): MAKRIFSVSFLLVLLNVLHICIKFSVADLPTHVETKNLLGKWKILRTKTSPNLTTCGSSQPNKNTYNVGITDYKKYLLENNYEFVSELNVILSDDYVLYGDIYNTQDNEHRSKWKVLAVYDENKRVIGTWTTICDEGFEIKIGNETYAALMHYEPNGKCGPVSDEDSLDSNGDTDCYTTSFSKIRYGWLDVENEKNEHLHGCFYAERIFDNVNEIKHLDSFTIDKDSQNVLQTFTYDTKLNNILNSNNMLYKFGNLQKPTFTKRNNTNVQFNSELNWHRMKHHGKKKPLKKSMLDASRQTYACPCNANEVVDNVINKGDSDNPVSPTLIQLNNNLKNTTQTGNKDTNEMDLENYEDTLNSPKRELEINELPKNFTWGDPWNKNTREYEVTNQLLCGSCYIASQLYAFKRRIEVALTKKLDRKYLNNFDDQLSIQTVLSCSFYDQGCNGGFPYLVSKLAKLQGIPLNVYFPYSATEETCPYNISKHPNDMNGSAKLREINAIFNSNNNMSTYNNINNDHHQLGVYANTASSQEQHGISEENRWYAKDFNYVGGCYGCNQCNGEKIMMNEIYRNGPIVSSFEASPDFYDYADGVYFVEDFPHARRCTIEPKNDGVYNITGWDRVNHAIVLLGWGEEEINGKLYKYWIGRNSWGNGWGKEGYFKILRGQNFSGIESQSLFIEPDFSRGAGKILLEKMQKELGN
On to `O=C(O)C1C(C(=O)O)C2C=CC1C21CC1` (stereo not drawn), for which the “% Inhibition @ 10 uM” value is -0.0217%.
As for `O=C1N=C(N2CCN(c3ccccc3)CC2)S/C1=C\c1ccccc1O`, the “% Inhibition @ 10 uM” value is listed as 34.9%.
`Cc1cc2c(Cc3ccccc3)nnc(O)c2c(O)n1`: the “% Inhibition @ 10 uM” value is 1.08%.
For the molecule `CC(NC(=O)C1CCN(c2nnc(N3CCCC3=O)s2)CC1)c1ccc2c(c1)OCCO2` (stereo not drawn), the “% Inhibition @ 10 uM” value is listed as 5.42%.
As to `COCCCNC(=O)C1CCN(S(=O)(=O)N2CCOCC2)CC1`, the “% Inhibition @ 10 uM” value stood at 0.718%.
With `CSc1ccc(-c2nc(CSCC(=O)N(C)CCC#N)c(C)o2)cc1`, the “% Inhibition @ 10 uM” value is recorded as 5.56%.
Turning to `O=C(NCc1cccn1Cc1ccccc1)NCC1CCCO1` (stereo not drawn), the “% Inhibition @ 10 uM” value was determined as 2.98%.
In the case of `COc1cccc(C2C(C#N)=C(N)Oc3nc(C)nc(O)c32)c1OC` (stereo not drawn), the “% Inhibition @ 10 uM” value came out at 2.22%.
On to `CCN1CCc2c(sc(NC(=O)c3ccc(S(=O)(=O)N(CC)CC)cc3)c2C(=O)OC)C1`, for which the “% Inhibition @ 10 uM” value was -4%.
Next, `COc1ccc(Cl)c(Cn2c(NCCCO)nc3c2c(=O)n(C)c(=O)n3C)c1`: 5.06%.
Turning to `Cc1ccc2c(c1)-c1onc(C(=O)NCCCN(Cc3ccco3)C3CCCC3)c1CO2`, the “% Inhibition @ 10 uM” value is -2.87%.
On to `CCN(CC)c1ccc(Nc2nc(-c3sc(C)nc3C)cs2)cc1`, for which the “% Inhibition @ 10 uM” value was determined as 1%.
As for `CCN1C=CC(=Cc2ccc3cc(C)ccc3[n+]2C)C=C1`, the “% Inhibition @ 10 uM” value is -3.75%.
With `CCOc1ccc(S(=O)(=O)Nc2cccnc2O)cc1` the figure was -5.17%.
With `COc1ccc(CCN2C(=O)NC(NC(=O)CC(C)C)(C(F)(F)F)C2=O)cc1OC` (stereo not drawn), the “% Inhibition @ 10 uM” value is 3.54%.
For `CC(C)N(CCNC(=O)[C@H](Cc1cc(I)c(O)c(I)c1)NC(=O)c1ccc(-c2csc(Nc3ccncc3)n2)cc1)C(C)C`, the “% Inhibition @ 10 uM” value is 3.1% and 4.63%.
On to `Cc1ccc(C)n1-c1nnc(N2CCC(C(=O)NCCC3=CCCCC3)CC2)s1`, for which the “% Inhibition @ 10 uM” value was found to be 4.33%.
As for `CCCCN(C)C(=O)CCNS(=O)(=O)c1ccc(Br)cc1`, the “% Inhibition @ 10 uM” value stood at 1.42%.
Next, `NC(=O)c1ccc(-n2nnnc2-n2ccnc2)cc1`: 2.77%; `Cc1cc(Oc2nc3ccccn3c(=O)c2/C=C(\C#N)C(=O)N2CCOCC2)ccc1Cl`: -8.55%; `CCN1CCN(Cc2cc(Br)cs2)CC1`: -0.0404%.
With `COc1ccc(COC(=O)C2=C(C)NC(=O)CC2c2ccccc2C(F)(F)F)cc1` (stereo not drawn), the “% Inhibition @ 10 uM” value is -1.62%.
As to `O=C(CCc1nnc2ccc(N3CCOCC3)nn12)NC1CCN(Cc2ccccc2)CC1`, the “% Inhibition @ 10 uM” value is given as -7.74%.
In the case of `COC(=O)c1cc2nc(-c3ccccc3)cc(C(F)(F)F)n2n1`, the “% Inhibition @ 10 uM” value is listed as -2.36%.
Next, `O=C(CCc1nc(-c2ccc(Cl)cc2)no1)NCC1CCCO1` (stereo not drawn): 0.366%.
On to `COc1ccc(C2C=C(c3ccccc3OC(F)F)Nc3nnnn32)cc1` (stereo not drawn), for which the “% Inhibition @ 10 uM” value was -6.93%.
Next, `COc1cc(CN2CCN(Cc3ccccc3Cl)CC2)cc(OC)c1`: -3.03%.
For `CCC(C)(C)NC(=O)CN(C)S(=O)(=O)c1cccc2cccnc12`, the “% Inhibition @ 10 uM” value is -0.692%.
With `O=S(=O)(NC1CCCCC1N1CC=C(c2ccccc2)CC1)c1ccccc1` (stereo not drawn) the figure was -0.671%.
Take `Cc1cccc(CCNC(=O)C2c3ccccc3C(=O)N(C)C2c2cn(C)c3ccccc23)c1` (stereo not drawn): the “% Inhibition @ 10 uM” value is recorded as -1.92%.
As to `CN1CCN(CCCNC(=O)CCCn2nc(-c3ccccc3)c3ccccc32)CC1`, the “% Inhibition @ 10 uM” value is -4.85%.
`CC(=O)Nc1cccnc1NC(C)=O`: the “% Inhibition @ 10 uM” value is -1.03%.
Turning to `N#Cc1cnn2c(O)c3c(nc12)CCCC3`, the “% Inhibition @ 10 uM” value amounted to 1.52%.
With `O=C1c2cccc3c(O)ccc(c23)C(=O)N1Cc1ccccc1` the figure was -1.35%.
With `CC(C)S(=O)(=O)C1=NSC2=NC(=O)/C(=C\c3ccc(SCc4ccco4)o3)C(=N)N21` the figure was 3.77%; with `Cc1ccnc(SCC(=O)N2N=CCC2c2ccccc2)n1` (stereo not drawn), -0.958%.
Turning to `Cc1ccc(OCCn2cnc3ccccc32)cc1`, the “% Inhibition @ 10 uM” value is -1.37%.
Next, `Cc1cc(C)cc(NC(=O)CN(Cc2ccccc2)S(C)(=O)=O)c1`: -3.34%.
With `COc1cc(-c2cc(C(F)(F)F)n3ncc(C(=O)NCc4ccco4)c3n2)cc(OC)c1OC`, the “% Inhibition @ 10 uM” value is listed as -3.92%.
Regarding `Cc1ccc(C2=NS(=O)(=O)N(C)C(C(=O)Nc3cc(C)nn3-c3ccccc3)=C2)cc1`, the “% Inhibition @ 10 uM” value was -4.68%.
In the case of `O=C(CCC1CCCC1)Nc1cccc2cccnc12`, the “% Inhibition @ 10 uM” value was found to be 4.44%.
For `O=C(O)CCCNc1ccc(S(=O)(=O)Nc2ccccc2)cc1`, the “% Inhibition @ 10 uM” value was -4.02%.
Take `Cn1c(C(=O)N2CCCC(C(=O)NCCc3ccc(S(N)(=O)=O)cc3)C2)cc2sccc21` (stereo not drawn): the “% Inhibition @ 10 uM” value was -2.84%.
Turning to `COCCNc1nc2ccccc2c2nc(-c3cccnc3)nn12`, the “% Inhibition @ 10 uM” value was -4.21%.
Take `CCOC(=O)c1c(NC(N)=O)sc2c1CCCCC2`: the “% Inhibition @ 10 uM” value is listed as 14.1%.
For the molecule `Cc1nc2nc(C)c(CCC(=O)NCc3ccco3)c(C)n2n1`, the “% Inhibition @ 10 uM” value worked out at 1.26%.
Turning to `CCN1C=C(C(=O)OC)C(c2ccccc2Cl)C(C(=O)OC)=C1`, the “% Inhibition @ 10 uM” value is 0.238%.
In the case of `COc1cc(C(=O)N(C)C2CCCCC2)cc(OC)c1OC`, the “% Inhibition @ 10 uM” value turned out to be 1.35%.
`O=C1C2C3C=CC(C4CC34)C2C(=O)N1CCO` (stereo not drawn): the “% Inhibition @ 10 uM” value was -1.96%.
On to `Cn1c(=O)c2c(-c3ccccc3Cl)n(CCO)cc2n(C)c1=O`, for which the “% Inhibition @ 10 uM” value was determined as 2.02%.
Turning to `CN(C)CCNC(=O)CCCNC(=O)Cn1cnc2sc3c(c2c1=O)CCCC3`, the “% Inhibition @ 10 uM” value is on record as -2.51%.
`O=S(=O)(c1ccc(-c2cc(C(F)(F)F)no2)s1)N1CCOCC1`: the “% Inhibition @ 10 uM” value is on record as 1.56%.
Consider `CCOc1cc(C2C3=C(O)CC(C)(C)CC3=NC3=C2C(=O)CC(C)(C)C3)cc(Br)c1O` (stereo not drawn), for which the “% Inhibition @ 10 uM” value was determined as 1.82%.
Regarding `O=C(c1cccnc1)N(C1CCCCC1)C1CCCCC1`, the “% Inhibition @ 10 uM” value amounted to 1.28%.
For the molecule `O=C(CCNc1c(N2CCCC2)c(=O)c1=O)NCCc1ccccc1`, the “% Inhibition @ 10 uM” value was -1.72%.
`CCOC(=O)C1=C(CNCCc2cc(OC)c(OC)c(OC)c2)NC(=O)NC1c1ccccc1` (stereo not drawn): the “% Inhibition @ 10 uM” value is -3.1%.
Take `Cc1cccc(COc2ncnc3[nH]cnc23)c1`: the “% Inhibition @ 10 uM” value is given as -4.97%.
On to `CCCCCOC(=O)c1ccc2c(c1)C(=O)N(C1CCCCC1)C2=O`, for which the “% Inhibition @ 10 uM” value is -5.08%.
Consider `Cc1ccc(S(=O)(=O)N2CCOCC2)cc1C(=O)N1c2ccccc2Sc2ccccc21`, for which the “% Inhibition @ 10 uM” value is given as -1.84%.
In the case of `CS(=O)(=O)c1ccc2nc(NC(=O)CN3CCC(Cc4ccccc4)CC3)sc2c1`, the “% Inhibition @ 10 uM” value was -2.9%.
With `COc1ccc(NC(=O)c2cc(OC)cc(OC)c2)cc1`, the “% Inhibition @ 10 uM” value is listed as -10.1%.
As for `CCOc1ccc(C(=O)Nc2ccc(F)cc2F)cc1`, the “% Inhibition @ 10 uM” value is 3.27%.
With `COCCCNC(=O)c1ccc2c(c1)ncn2-c1cc(Cl)ccc1OC` the figure was 2.6%; with `CCCCCCN1CC(=O)C(c2nc3ccccc3s2)=C1N`, 2.14%.
On to `CCC(Oc1ccccc1)C(=O)NC1CCCC1` (stereo not drawn), for which the “% Inhibition @ 10 uM” value turned out to be 4.75%.
With `CCOc1cccc(-c2nc(O)c3c(n2)Oc2ccccc2C3)c1` the figure was 5.48%.
For the molecule `COc1cccc(C(=O)Nc2sc3c(c2C#N)CCCC3)c1`, the “% Inhibition @ 10 uM” value is -1.06%.
As for `COc1ccc(C)cc1NC(=O)c1ccc(OC(F)F)cc1`, the “% Inhibition @ 10 uM” value is listed as -3.71%.
`CC(C)(C)c1ccc(-c2nnc(SCC(=O)O)n2-c2ccccc2)cc1`: the “% Inhibition @ 10 uM” value worked out at 4.42%.
Regarding `CCOCCn1cnc2sc(C(=O)NCCCN(CC)CC)c(C)c2c1=O`, the “% Inhibition @ 10 uM” value is reported as -3.93%.
Take `Cc1ccc(NC(=O)CN(CCc2ccccc2)S(C)(=O)=O)c(C)c1`: the “% Inhibition @ 10 uM” value was determined as 3.04%.
Take `O=C(Cn1cccc1C(=O)c1ccccc1)NCCc1ccc(Cl)cc1`: the “% Inhibition @ 10 uM” value is -0.522%.
As to `CN1CCN(c2ccc3nnc(CCC(=O)NCCc4c[nH]c5ccccc45)n3n2)CC1`, the “% Inhibition @ 10 uM” value is reported as -0.264%.
With `COc1ccccc1-c1cc(-c2ccccc2)nc(N)c1C#N` the figure was 1.26%; with `O=C(/C=C/c1ccc(-c2ccc(Cl)cc2)o1)c1ccco1`, 3.34%; with `COc1ccc(N2C(=O)CC(N3CCN(c4ccccc4F)CC3)C2=O)c(OC)c1` (stereo not drawn), -2.98%.
As to `COc1ccc(C2=C/C(=C/c3ccccc3Cl)C(=O)O2)cc1`, the “% Inhibition @ 10 uM” value is given as 3.16%.
Consider `Cc1nn(CCC(=O)NCc2ccc3c(c2)OCO3)c(=O)c2nn(-c3ccccc3)c(C)c12`, for which the “% Inhibition @ 10 uM” value is listed as -6.73%.
As to `COc1ccc(NC(=O)CN(c2ccc(Cl)cc2)S(C)(=O)=O)c(OC)c1`, the “% Inhibition @ 10 uM” value is -0.297%.
For `CC(C)CNS(=O)(=O)c1ccc(OCC(=O)N2CCc3ccccc3C2)cc1`, the “% Inhibition @ 10 uM” value was -0.0619%.
Next, `O=C(C1CCCN(c2ncnc3c2nc2n3CCCCC2)C1)N1CCN(c2ccccn2)CC1` (stereo not drawn): -0.238%; `COc1cc(CNc2cccc(C(F)(F)F)c2)ccc1OCC(=O)NC(C)(C)C`: 1.92%.
On to `O=C(NCc1ccccc1Cl)c1c(O)nc2ccccc2c1O`, for which the “% Inhibition @ 10 uM” value worked out at 5.85%.
With `CCc1nnc(OCC(=O)NCc2cccc(OC)c2)c2cc3cc(F)ccc3n12`, the “% Inhibition @ 10 uM” value is 1.63%.
With `OCCN(Cc1ccccc1)Cc1cccc(Cl)c1` the figure was 4.28%; with `CCOC(=O)N1CCC(NC(=O)c2cnn3c(C)c(Cc4ccccc4Cl)c(C)nc23)CC1`, -3.94%.
For `O=C1NC(=O)N(c2cccc(Cl)c2)C(=O)/C1=C\Nc1ccccc1O`, the “% Inhibition @ 10 uM” value is 0.792%.
With `O=C(NC1CCS(=O)(=O)C1)c1sc2ccccc2c1Cl` (stereo not drawn) the figure was -4.75%; with `Cc1nc2ccccc2n1Cc1ccc(C(C)(C)C)cc1`, -3.35%.
With `CCOc1ccccc1CN1CCN(c2ccc(C(C)=O)cc2)CC1` the figure was -0.849%.
Take `Cc1[nH]c2ccccc2c1/C=C1/C(=N)N2C(=NC1=O)SN=C2S(=O)(=O)C(C)C`: the “% Inhibition @ 10 uM” value is listed as -1.58%.
`Cc1nnc(N2CCCCC2)c2ccccc12`: the “% Inhibition @ 10 uM” value is -2.97%.
Regarding `Fc1ccc(-n2nnc(-c3ccccc3Br)n2)cc1`, the “% Inhibition @ 10 uM” value is recorded as -3.49%.
Take `CCOc1ccc2nc(SCC(=O)Nc3ccc(C#N)cc3)sc2c1`: the “% Inhibition @ 10 uM” value worked out at 0.121%.
Take `CC(C)(C)c1ccc(-c2nc(NC(=O)CSc3nnc4ccccn34)ns2)cc1`: the “% Inhibition @ 10 uM” value was -4.78%.
`O=C(NCc1ccccn1)c1sc2ccccc2c1Cl`: the “% Inhibition @ 10 uM” value was -5.68%.
Next, `COc1cccc(CNCc2c(C(=O)O)n(Cc3ccccc3)c3cc(C)ccc23)c1OC`: -0.118%; `CCCCCn1c(=O)c(C(=O)Nc2ccccc2C(N)=O)c(O)c2ccccc21`: -4.23%; `CCOC(=O)N1CCN(C(=O)c2ccc(Br)cc2)CC1`: 3.72%.
